Experimental data taken from article PMC9911399, “Two distinct binding modes provide the RNA-binding protein RbFox with extraordinary sequence specificity”.
Numbering of substitutions follows the chain as printed; changes in the protein carry UniProt numbers. This is one part of the list.

T1: RBFOX1 RRM RbFoxmut (Fox-RRM*) (Homo sapiens, UniProt Q9NWB1 109-208, R118D;E147R;N151S;E152T)
T1 sequence: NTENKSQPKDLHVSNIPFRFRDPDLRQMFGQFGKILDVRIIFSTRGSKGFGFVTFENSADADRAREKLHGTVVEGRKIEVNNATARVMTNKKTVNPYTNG

B1: CCGUGAC (DNA:RNA)
RNA: GGGAGACCGGAAUUCAGAUUGUCCCCGUGACUUAAAUCCCGUCGUAGCCACCA
DNA 1: CAATCTGAATTCCGGTCTCCC
DNA 2: TGGTGGCTACGACGGGATT
B2: UGCCACG (DNA:RNA)
RNA: GGGAGACCGGAAUUCAGAUUGUCCUGCCACGUUAAAUCCCGUCGUAGCCACCA
DNA 1: CAATCTGAATTCCGGTCTCCC
DNA 2: TGGTGGCTACGACGGGATT
B3: GAGCUUC (DNA:RNA)
RNA: B1 RNA with C25G, C26A, U28C, G29U, A30U
DNA 1: CAATCTGAATTCCGGTCTCCC
DNA 2: TGGTGGCTACGACGGGATT
B4: AUCCUAG (DNA:RNA)
RNA: B2 RNA with U25A, G26U, A29U, C30A
DNA 1: CAATCTGAATTCCGGTCTCCC
DNA 2: TGGTGGCTACGACGGGATT
B5: UCGUGCA (DNA:RNA)
RNA: B1 RNA with C25U, A30C, C31A
DNA 1: CAATCTGAATTCCGGTCTCCC
DNA 2: TGGTGGCTACGACGGGATT
B6: AUUGCUU (DNA:RNA)
RNA: GGGAGACCGGAAUUCAGAUUGUCCAUUGCUUUUAAAUCCCGUCGUAGCCACCA
DNA 1: CAATCTGAATTCCGGTCTCCC
DNA 2: TGGTGGCTACGACGGGATT
B7: AGACGGA (DNA:RNA)
RNA: B2 RNA with U25A, C27A, A29G, C30G, G31A
DNA 1: CAATCTGAATTCCGGTCTCCC
DNA 2: TGGTGGCTACGACGGGATT
B8: ACGUGGG (DNA:RNA)
RNA: B1 RNA with C25A, A30G, C31G
DNA 1: CAATCTGAATTCCGGTCTCCC
DNA 2: TGGTGGCTACGACGGGATT
B9: AUCCUAA (DNA:RNA)
RNA: B6 RNA with U27C, G28C, C29U, U30A, U31A
DNA 1: CAATCTGAATTCCGGTCTCCC
DNA 2: TGGTGGCTACGACGGGATT
B10: GCGGCAG (DNA:RNA)
RNA: B1 RNA with C25G, U28G, G29C, C31G
DNA 1: CAATCTGAATTCCGGTCTCCC
DNA 2: TGGTGGCTACGACGGGATT
B11: GGUAGGC (DNA:RNA)
RNA: B1 RNA with C25G, C26G, G27U, U28A, A30G
DNA 1: CAATCTGAATTCCGGTCTCCC
DNA 2: TGGTGGCTACGACGGGATT
B12: CGGGUAA (DNA:RNA)
RNA: B1 RNA with C26G, U28G, G29U, C31A
DNA 1: CAATCTGAATTCCGGTCTCCC
DNA 2: TGGTGGCTACGACGGGATT
B13: CCACUGA (DNA:RNA)
RNA: B1 RNA with G27A, U28C, G29U, A30G, C31A
DNA 1: CAATCTGAATTCCGGTCTCCC
DNA 2: TGGTGGCTACGACGGGATT
B14: CAGGGGG (DNA:RNA)
RNA: B1 RNA with C26A, U28G, A30G, C31G
DNA 1: CAATCTGAATTCCGGTCTCCC
DNA 2: TGGTGGCTACGACGGGATT
B15: GUAGAAC (DNA:RNA)
RNA: B6 RNA with A25G, U27A, C29A, U30A, U31C
DNA 1: CAATCTGAATTCCGGTCTCCC
DNA 2: TGGTGGCTACGACGGGATT
B16: CUGUCAU (DNA:RNA)
RNA: B1 RNA with C26U, G29C, C31U
DNA 1: CAATCTGAATTCCGGTCTCCC
DNA 2: TGGTGGCTACGACGGGATT
B17: AUCCUUG (DNA:RNA)
RNA: B6 RNA with U27C, G28C, C29U, U31G
DNA 1: CAATCTGAATTCCGGTCTCCC
DNA 2: TGGTGGCTACGACGGGATT
B18: AACAUUG (DNA:RNA)
RNA: B6 RNA with U26A, U27C, G28A, C29U, U31G
DNA 1: CAATCTGAATTCCGGTCTCCC
DNA 2: TGGTGGCTACGACGGGATT
B19: CAAACUA (DNA:RNA)
RNA: B6 RNA with A25C, U26A, U27A, G28A, U31A
DNA 1: CAATCTGAATTCCGGTCTCCC
DNA 2: TGGTGGCTACGACGGGATT
B20: AUCCUAU (DNA:RNA)
RNA: B6 RNA with U27C, G28C, C29U, U30A
DNA 1: CAATCTGAATTCCGGTCTCCC
DNA 2: TGGTGGCTACGACGGGATT
B21: GCAAUGC (DNA:RNA)
RNA: B1 RNA with C25G, G27A, U28A, G29U, A30G
DNA 1: CAATCTGAATTCCGGTCTCCC
DNA 2: TGGTGGCTACGACGGGATT
B22: UAACAUC (DNA:RNA)
RNA: B2 RNA with G26A, C27A, C30U, G31C
DNA 1: CAATCTGAATTCCGGTCTCCC
DNA 2: TGGTGGCTACGACGGGATT
B23: ACAGGCU (DNA:RNA)
RNA: B6 RNA with U26C, U27A, C29G, U30C
DNA 1: CAATCTGAATTCCGGTCTCCC
DNA 2: TGGTGGCTACGACGGGATT
B24: CGGACAC (DNA:RNA)
RNA: B1 RNA with C26G, U28A, G29C
DNA 1: CAATCTGAATTCCGGTCTCCC
DNA 2: TGGTGGCTACGACGGGATT
B25: GCUUUAU (DNA:RNA)
RNA: B1 RNA with C25G, G27U, G29U, C31U
DNA 1: CAATCTGAATTCCGGTCTCCC
DNA 2: TGGTGGCTACGACGGGATT
B26: GGUGUCA (DNA:RNA)
RNA: B6 RNA with A25G, U26G, C29U, U30C, U31A
DNA 1: CAATCTGAATTCCGGTCTCCC
DNA 2: TGGTGGCTACGACGGGATT
B27: GGACUUC (DNA:RNA)
RNA: B2 RNA with U25G, C27A, A29U, C30U, G31C
DNA 1: CAATCTGAATTCCGGTCTCCC
DNA 2: TGGTGGCTACGACGGGATT
B28: UAGACUA (DNA:RNA)
RNA: B6 RNA with A25U, U26A, U27G, G28A, U31A
DNA 1: CAATCTGAATTCCGGTCTCCC
DNA 2: TGGTGGCTACGACGGGATT
B29: CUCUACC (DNA:RNA)
RNA: B1 RNA with C26U, G27C, G29A, A30C
DNA 1: CAATCTGAATTCCGGTCTCCC
DNA 2: TGGTGGCTACGACGGGATT
B30: UAGGCCC (DNA:RNA)
RNA: B6 RNA with A25U, U26A, U27G, U30C, U31C
DNA 1: CAATCTGAATTCCGGTCTCCC
DNA 2: TGGTGGCTACGACGGGATT
B31: CGAAGCA (DNA:RNA)
RNA: B1 RNA with C26G, G27A, U28A, A30C, C31A
DNA 1: CAATCTGAATTCCGGTCTCCC
DNA 2: TGGTGGCTACGACGGGATT

Target: T1, RBFOX1 RRM RbFoxmut (Fox-RRM*)
Assay: EMSA; HiTS-Eq, 1 nM pool, 10 min; buffer printed only for the single-RNA assays: 10 mM Tris pH 7.5, 150 mM NaCl, 3.4 mM EDTA, 0.001% NP-40, 30 C
Details: tags: His6 N-terminal (pET28a); label: 5' 32P
Procedure, shortened: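 A pool of RNA with 7 randomized nucleotides, 5′-radiolabelled and with DNA-annealed flanks, was equilibrated at 1 nM for 10 min in 50 µL with purified RbFox RRM, wild type or mutant, across increasing protein concentrations. Free RNA was separated by 8% native PAGE, excised, reverse-transcribed, barcoded by PCR and sequenced. Relative association constants were obtained from read-count changes of each RNA species versus the control reaction and normalised to the cognate motif.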

Binder | binding signal
B1 | 0.0977 KA relative to UGCAUGU
B2 | 0.158 KA relative to UGCAUGU
B3 | 0.0856 KA relative to UGCAUGU
B4 | 0.12 KA relative to UGCAUGU
B5 | 0.181 KA relative to UGCAUGU
B6 | 0.137 KA relative to UGCAUGU
B7 | 0.0873 KA relative to UGCAUGU
B8 | 0.0961 KA relative to UGCAUGU
B9 | 0.107 KA relative to UGCAUGU
B10 | 0.104 KA relative to UGCAUGU
B11 | 0.0675 KA relative to UGCAUGU
B12 | 0.0961 KA relative to UGCAUGU
B13 | 0.123 KA relative to UGCAUGU
B14 | 0.0803 KA relative to UGCAUGU
B15 | 0.116 KA relative to UGCAUGU
B16 | 0.0805 KA relative to UGCAUGU

Binder | binding signal
B17 | 0.109 KA relative to UGCAUGU
B18 | 0.0767 KA relative to UGCAUGU
B19 | 0.0907 KA relative to UGCAUGU
B20 | 0.135 KA relative to UGCAUGU
B21 | 0.0545 KA relative to UGCAUGU
B22 | 0.0561 KA relative to UGCAUGU
B23 | 0.118 KA relative to UGCAUGU
B24 | 0.0572 KA relative to UGCAUGU
B25 | 0.126 KA relative to UGCAUGU
B26 | 0.169 KA relative to UGCAUGU
B27 | 0.118 KA relative to UGCAUGU
B28 | 0.0687 KA relative to UGCAUGU
B29 | 0.0729 KA relative to UGCAUGU
B30 | 0.0552 KA relative to UGCAUGU
B31 | 0.142 KA relative to UGCAUGU
